# Measured values as given in PubChem BioAssay AID445 (National Center for Advancing Translational Sciences (NCATS), 2006).
# Out of some 110,000 compounds screened, about 40 (0.04%) were called active. This list was built around the results that the source calls inconclusive (neither active nor inactive); the mix of calls is not that of the screen. Calls come from the whole dose curve; as a rule, active = well fitted curve in the direction sought with a large enough effect in the signal ratio (not every such curve was filed as active); inconclusive = small, poorly fitted or top-dose-only effect, or a change in a side signal; inactive = flat fitted curve, though single readings scatter; the % refers to the signal ratio. Where the call is inconclusive, the potency comes from a doubtful curve fit.
# Test: IkB Signaling;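 for IkBa stabilization activation: 0% = basal untreated cells and 100% = reference inhibitor full response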
# Settings: ABC-DLBCL IkBa-CBG/CBR dual luciferase ratio (green luciferase fused to IkBa over red control in OCI-Ly3 lymphoma cells), 4 h; IkBa stabilization activation: at 57.1 µM (top of the series), scaled: untreated 0%, proteasome inhibitor 100% unless noted
# Outline: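 Luminescence ratio of IκBα-fused green versus native red beetle luciferase in OCI-Ly3 cells, 4 h post-doxycycline with compound; red signal alone, scaled from basal (0%) to zero light (-100%), flagged nonspecific or cytotoxic effects.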
# Potency is the fitted concentration of half-maximal effect.
SMILES,IkBa stabilization activation,Potency
O=C(CCCn1c(=O)c2ccccc2n(Cc2cccc(Cl)c2)c1=O)NCCc1ccc(Cl)cc1,inactive,–
CCOC(=O)c1ccc(N2C(=O)c3n[nH]c(-c4ccco4)c3C2c2ccc(OCC)cc2)cc1 (stereo not given),inconclusive: 9.94% [signal inhibitor],–
CCCC(=O)Nc1cc(C(=O)NCc2ccccc2)ccc1S(=O)(=O)c1ccc(Cl)cc1,inconclusive: -0.339% [signal inhibitor],–
O=C(CSc1nc2c(oc3ccccc32)c(=O)n1-c1ccccc1)Nc1ccccc1F,inconclusive: 2.65% [signal inhibitor],–
Cc1cc(N)c2ccccc2[n+]1CCCCCCCCCC[n+]1c(C)cc(N)c2ccccc21,inactive,–
O=C(N1CCOCC1)N1CCN(c2nc(-c3ccc(F)cc3)cs2)CC1,inactive,–
CCc1nnc(NC(=O)c2ccc(S(=O)(=O)N(CC(C)C)CC(C)C)cc2)o1,inactive,–
CCOC(=O)N1CCC(NC(=O)c2cc3c(-c4ccc(OC)c(OC)c4)nn(C)c3s2)CC1,inactive,–
COc1cccc(N2CCN(C(=O)C3Cc4ccccc4N3C(C)=O)CC2)c1 (stereo not given),inconclusive: 0.708% [signal inhibitor],–
O=C(C1CCC1)N1CCCc2cc(S(=O)(=O)N3CCN(c4ccccc4)CC3)ccc21,inconclusive: -0.0479% [signal inhibitor],–
COc1ccc2c(C)nc(Nc3nc(C)cc(=O)[nH]3)nc2c1,inconclusive: 1.03% [signal inhibitor],–
CCOC(=O)c1c(C)[nH]c(CCC(=O)Nc2c(C)cccc2CC)c1C,inactive,–
Cc1cccc(-c2nc3ccccc3n2Cc2ccccc2)c1,inconclusive: 2.69% [signal inhibitor],–
CC(C)OC(=O)C(C(=O)C(F)(F)F)c1cc(NS(=O)(=O)c2ccc3c4c(cccc24)C(=O)N3)ccc1O (stereo not given),inconclusive: 0.241% [signal inhibitor],–
CCC(=O)Nc1ccccc1-c1nc2ccccc2n(CC(=O)c2ccc(Cl)cc2)c1=O,inactive,–
CCOC(=O)N1CCc2c(sc(NCc3cccc(F)c3)c2C(=O)Nc2ccc(OC)cc2OC)C1,inconclusive: 0.194% [signal inhibitor],–
O=C(CSc1nc2ccccc2c(=O)n1Cc1ccco1)NCc1ccccc1,inactive,–
COc1ccc(Oc2ncc3nc(-c4cccc(C#N)c4)c(=O)n(Cc4cccc(OC)c4)c3n2)cc1,"inactive: 2.45% [at 11.4 µM, scaled: untreated 0%, proteasome inhibitor 100%]",–
Cc1ccc(S(=O)(=O)c2nnn3c2nc(NC(C)C)c2sccc23)cc1,inactive,–
COc1ccc(Cl)cc1NC(=O)Cn1c(=O)n(Cc2cccs2)c(=O)c2cccnc21,inconclusive: 2.04% [signal inhibitor],–
CC(=O)Nc1ccc(-n2c(CCC(=O)O)ccc2-c2ccc(Br)cc2)cc1,inconclusive: 8.29% [signal inhibitor],–
COc1ccc(Br)c2c1-c1nc(NC(=O)c3ccccc3F)sc1C2,–,inconclusive: 0.251 µM [signal inhibitor]

SMILES,IkBa stabilization activation,Potency
Cc1ccccc1N=C1Nc2ccccc2CS1,inactive,–
COc1ccc(CCCc2nnc(SCC(=O)Nc3cc(C)ccc3C)o2)cc1,inconclusive: 9.48% [signal inhibitor],–
Cc1nc2ccc(S(=O)(=O)N(CC(=O)Nc3cccc(Cl)c3)Cc3ccccc3)cc2s1,inconclusive: 10.9% [signal inhibitor],–
Cc1nn(CC(=O)NCc2ccc(N(C)C)cc2)c(=O)c2c(C)n(-c3ccc(Cl)cc3)nc12,inconclusive: -0.235% [signal inhibitor],–
COc1ccc(-c2nc(SCC(=O)N3CCN(c4ccc(F)cc4)CC3)n[nH]2)cc1,inactive,–
CCCCOc1ccc(CNC(=O)Cc2ccc(NC(=O)N3CCCCc4ccccc43)cc2)cc1,inconclusive: 5.67% [signal inhibitor],–
CCOC(=O)c1c(Nc2ccc(F)cc2)nnc(-c2ccccc2)c1-c1ccccc1,inconclusive: 9.28% [signal inhibitor],–
Nc1c(NCCN2CCOCC2)c2ccccc2oc1=O,–,"inconclusive: 12.6 µM [signal inhibitor, partial curve]"
CCCN(C(=O)c1cc2ccc3cccnc3c2[nH]1)c1ccc(F)cc1,inactive,–
O=C(OCC(=O)N1CCN(C(=O)c2ccco2)CC1)c1cc(-c2ccccc2)nc2ccccc12,inconclusive: 10.2% [signal inhibitor],–
COC(=O)c1sc2cccc(F)c2c1S(=O)(=O)Nc1ccc(N(C)C)cc1,inconclusive: -0.422% [signal inhibitor],–
N#CCCn1c(=O)c(-c2ccc(F)cc2)nc2cnc(Oc3ccccc3)nc21,"inactive: -1.26% [at 11.4 µM, scaled: untreated 0%, proteasome inhibitor 100%]",–
CCCCOc1ccc(-c2nnn(C(C)C(=O)OCC)n2)cc1 (stereo not given),inactive,–
CCOC(=O)c1nc(S(C)(=O)=O)ncc1Cl,–,"inconclusive: 6.31 µM [signal inhibitor, single point]"
CCOc1ccc(NC(=O)CSc2nc3c(oc4ccccc43)c(=O)n2-c2cc(C)cc(C)c2)cc1,inconclusive: 1.34% [signal inhibitor],–
CN(C)c1ccc(/C(=N\O)C(F)(F)F)cc1,inactive,–
Cc1ccc(C(=O)Nc2c(-c3ccccc3)nc3ccccn23)cc1,inconclusive: 3.08% [signal inhibitor],–
Cc1nnc(N2CCC(C(=O)Nc3ccc(F)cc3)CC2)c2nn(-c3ccc(Cl)cc3)c(C)c12,inconclusive: -2.49% [signal inhibitor],–
O=C(CNC(=O)c1ccco1)OCc1ccc(C(=O)Oc2ccccc2)cc1,inconclusive: 7.29% [signal activator],–
Cc1cc(NC(=O)c2cc(-c3cccc(Cl)c3)on2)nn1Cc1ccc(Cl)cc1,–,"inconclusive: 25.1 µM [signal inhibitor, partial curve]"
CCCN(CCC)C(=O)Cn1c(=O)n(-c2ccc(C)c(C)c2)c(=O)c2c3c(sc21)CCCCC3,inconclusive: 4.07% [signal inhibitor],–
Cc1ncc(CO)c2c1Oc1nc(-c3ccc(F)cc3)nc(SCC(=O)N3CCCCC3)c1C2,inconclusive: 1.29% [signal inhibitor],–

SMILES,IkBa stabilization activation,Potency
Cc1ccc(CN2C(=O)N(c3ccc(F)cc3)C(=O)C2CC(=O)Nc2ccc(Cl)cc2)cc1 (stereo not given),inconclusive: 4.74% [signal inhibitor],–
COC(=O)CN1C(=O)CSc2ccc(S(=O)(=O)Nc3cccc(Br)c3)cc21,inconclusive: 0.958% [signal inhibitor],–
Cc1ccc(C)c(Cn2c3ccccc3c3cnn(CC(=O)NC4CCC(C)CC4)c(=O)c32)c1 (stereo not given),inconclusive: 1.2% [signal inhibitor],–
CN1CCN(c2ncc3nc(-c4ccc(F)cc4)c(=O)n(C4CC4)c3n2)CC1,"inactive: -1.26% [at 11.4 µM, scaled: untreated 0%, proteasome inhibitor 100%]",–
COc1ccc(-n2nc(C(=O)N3CCCC(C)C3)c3c4ccccc4n(C)c3c2=O)cc1Cl (stereo not given),inconclusive: -0.222% [signal inhibitor],–
COc1cc(OC)c(NC(=O)CCCn2nc(C)c3c(C)n(-c4ccccc4)nc3c2=O)cc1Cl,inconclusive: 1.45% [signal inhibitor],–
O=C(NC1CC(=O)N(c2ccccc2)C1)c1ccc(S(=O)(=O)N2CCCCC2)cc1 (stereo not given),inconclusive: -1.64% [signal inhibitor],–
Cc1nn2c(C)c(C(=O)NCc3ccco3)cnc2c1-c1ccccc1,inconclusive: 0.00279% [signal inhibitor],–
COCCCN1C(=O)c2[nH]nc(-c3ccccc3O)c2C1c1ccc(Cl)cc1 (stereo not given),inconclusive: -3.65% [signal inhibitor],–
Cn1c(=O)oc2cc(S(=O)(=O)N3CCCC(C(=O)NCc4ccc(F)cc4)C3)ccc21 (stereo not given),inconclusive: 1.01% [signal inhibitor],–
Cc1ccc(N2CCN(C(=O)c3cnc(N4CCCCC4)c4ccccc34)CC2)c(C)c1,–,inconclusive: 39.8 µM [signal inhibitor]
COc1cccc2c1C(=O)c1c(O)c3c(c(O)c1C2=O)C[C@](O)(C(=O)CO)C[C@H]3O[C@@H]1C[C@H](N)[C@H](O)[C@H](C)O1,"inconclusive: -7.9% [signal inhibitor] [at 25.6 µM, scaled: untreated 0%, proteasome inhibitor 100%]",–
COc1cccc(Cn2nnc3c(=O)[nH]c(C4CCN(C(=O)c5ccccc5Cl)CC4)nc32)c1,inconclusive: 0.273% [signal inhibitor],–
COc1ccc(C(=O)NCc2nnc(SCC(=O)N3CCc4ccccc43)o2)cc1OC,inactive,–
O=C(NCc1ccccc1Br)c1cnc2sc(N3CCCCCC3)nn2c1=O,inconclusive: 0.356% [signal inhibitor],–
COCc1cc(C)nc(SCC(=O)Nc2cccc3cccnc23)c1C#N,inactive,–
Cc1ccc(C)c(CN2C(=O)c3ccccc3S(=O)(=O)c3ccc(C(=O)NCCCN4CCCC(C)C4)cc32)c1 (stereo not given),inconclusive: 2.3% [signal inhibitor],–
CCOC(=O)c1sc(NC(=O)c2c(C)noc2C)c(C(=O)OCC)c1C,inactive,–
Cc1ccc(NC(=O)c2noc3c2CCCCC3)cc1C,inconclusive: 13.3% [signal inhibitor],–
CCc1ccc(CNC(=O)CN2C(=O)CSc3c2c(C)nn3-c2ccccc2)cc1,inactive,–
Cc1sc2nc(C(C)C)nc(SCC(=O)NCc3ccco3)c2c1C,inconclusive: 0.276% [signal inhibitor],–
